Inconclusive means that the source gave no clear call. Such entries were picked first, then a sample of the others. For some of these results: Potencies beside an inconclusive call are fits to weak or partial responses and may not hold up. Calls of active or inactive are those of the source. Unless noted, calls come from the whole dose curve; as a rule, active = well fitted curve in the direction sought with a large enough effect in the repeat runs; inconclusive = weak or mixed curves; inactive = no such curve, though single readings can be large; an effect the other way counts as inactive or inconclusive.
Columns and labels:
[1] = qHTS assay for small molecule agonists of the p53 signaling pathway (AID 651631; calls by dose curve; note: nearly all actives have a fitted effect of over 15% in size; note: potency is the fitted concentration of half-maximal effect; for activation: % is set by controls: 0 for no effect and ±100 for the full control effect); settings: HCT-116 p53RE-bla reporter, beta-lactamase FRET ratio, 16 h; activation: at 73.3 µM (top of the series) unless noted
In short: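 Read-out is beta-lactamase FRET fluorescence measured 2 h after substrate addition at room temperature, in HCT-116 cells with a p53 response element-driven reporter exposed to compounds for 16 h at 37 °C.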

[2] = biological target: Peroxisome proliferator-activated receptor gamma (Homo sapiens) (UniProt P37231); test: qHTS assay to identify small molecule antagonists of the peroxisome proliferator-activated receptor gamma (PPARg) signaling pathway (AID 743191; calls by dose curve; note: % is set by controls: 0 for no effect and ±100 for the full control effect; nearly all actives have a fitted effect of over 30% in size); settings: HEK293H PPARg-UAS-bla, beta-lactamase ratio, antagonist, 17 h; ratio activity, negative = inhibition: at 62.6 µM (top of the series) unless noted
UniProt P37231, sequence (P37231 whole entry, looked up): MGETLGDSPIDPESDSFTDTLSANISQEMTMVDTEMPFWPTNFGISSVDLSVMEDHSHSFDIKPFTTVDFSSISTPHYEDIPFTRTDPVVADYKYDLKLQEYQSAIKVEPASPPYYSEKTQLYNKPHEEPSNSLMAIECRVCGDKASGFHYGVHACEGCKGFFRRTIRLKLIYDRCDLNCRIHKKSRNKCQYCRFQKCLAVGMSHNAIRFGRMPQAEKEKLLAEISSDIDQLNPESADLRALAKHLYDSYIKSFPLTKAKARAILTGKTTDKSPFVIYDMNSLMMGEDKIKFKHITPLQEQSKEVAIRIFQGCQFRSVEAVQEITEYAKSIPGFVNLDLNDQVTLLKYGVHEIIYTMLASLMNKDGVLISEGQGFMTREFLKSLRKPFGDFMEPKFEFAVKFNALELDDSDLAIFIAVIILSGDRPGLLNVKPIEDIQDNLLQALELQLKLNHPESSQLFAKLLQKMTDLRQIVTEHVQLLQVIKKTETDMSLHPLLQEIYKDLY
In short: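 GeneBLAzer PPARg UAS-bla HEK293H cells carrying a UAS-driven beta-lactamase reporter were plated at 3000 cells/well, preincubated 5 h at 37C, then given compound for 17 h at 37C; LiveBLAzer B/G FRET substrate was read after 1 h at room temperature.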

[3] = biological target: Vitamin D3 receptor (Homo sapiens) (UniProt P11473); test: qHTS assay to identify small molecule antagonists of the vitamin D receptor (VDR) signaling pathway (AID 743223; active = well fitted inhibition curve with a large enough effect in the signal ratio in the repeat runs, not every such curve was filed as active; inconclusive = weak or mixed curves, or effect the other way; inactive = no such curve, though single readings can be large or run the other way; the % refers to the signal ratio; note: potency is the fitted concentration of half-maximal effect); settings: VDR-UAS-bla HEK293T, beta-lactamase FRET ratio, 16 h; activity change, negative = inhibition: at 61 µM (top of the series) unless noted
UniProt P11473, sequence (P11473 whole entry, looked up): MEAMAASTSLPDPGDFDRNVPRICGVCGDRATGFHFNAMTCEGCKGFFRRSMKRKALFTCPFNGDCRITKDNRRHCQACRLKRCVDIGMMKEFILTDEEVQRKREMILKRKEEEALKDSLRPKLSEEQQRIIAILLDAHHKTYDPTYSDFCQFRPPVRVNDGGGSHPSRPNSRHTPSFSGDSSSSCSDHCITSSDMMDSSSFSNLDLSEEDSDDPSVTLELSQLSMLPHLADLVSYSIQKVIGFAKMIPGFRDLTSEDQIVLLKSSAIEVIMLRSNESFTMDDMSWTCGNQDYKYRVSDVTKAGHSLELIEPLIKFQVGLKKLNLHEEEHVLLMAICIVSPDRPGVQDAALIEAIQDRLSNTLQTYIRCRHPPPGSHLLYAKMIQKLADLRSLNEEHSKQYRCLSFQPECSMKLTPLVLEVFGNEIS
In short: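 Antagonist mode uses 1alpha,25-dihydroxyvitamin D3 at 3 nM final as stimulus. VDR-bla cells receive compounds in DMSO, incubate 16 h at 37C, then a beta-lactamase FRET substrate for 2 h at room temperature before fluorescence measurement.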

[4] = qHTS assay to identify small molecule antagonists of the estrogen related receptor (ERR) signaling pathway from Tox21 library - cell viability counter screen (AID 1224834); note: nearly all actives have a fitted effect of over 30% in size; note: potency is the fitted concentration of half-maximal effect
In short: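 CellTiter-Fluor fluorescence measured; ERR cells; 17.5 h compound incubation at 37 C; 30 min reagent step.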

[5] = biological target: Estrogen receptor beta (Homo sapiens) (UniProt Q92731); test: qHTS assay to identify small molecule antagonists of the estrogen receptor beta (ER-beta) signaling pathway (AID 1259378; active = well fitted inhibition curve with a large enough effect in the signal ratio in the repeat runs, not every such curve was filed as active; inconclusive = weak or mixed curves, or effect the other way; inactive = no such curve, though single readings can be large or run the other way; the % refers to the signal ratio; note: % is set by controls: 0 for no effect and ±100 for the full control effect); settings: ER-beta-UAS-bla HEK293T, beta-lactamase FRET ratio, 16 h; activity, negative = inhibition: at 92.4 µM (top of the series) unless noted
UniProt Q92731, sequence (Q92731 whole entry, looked up): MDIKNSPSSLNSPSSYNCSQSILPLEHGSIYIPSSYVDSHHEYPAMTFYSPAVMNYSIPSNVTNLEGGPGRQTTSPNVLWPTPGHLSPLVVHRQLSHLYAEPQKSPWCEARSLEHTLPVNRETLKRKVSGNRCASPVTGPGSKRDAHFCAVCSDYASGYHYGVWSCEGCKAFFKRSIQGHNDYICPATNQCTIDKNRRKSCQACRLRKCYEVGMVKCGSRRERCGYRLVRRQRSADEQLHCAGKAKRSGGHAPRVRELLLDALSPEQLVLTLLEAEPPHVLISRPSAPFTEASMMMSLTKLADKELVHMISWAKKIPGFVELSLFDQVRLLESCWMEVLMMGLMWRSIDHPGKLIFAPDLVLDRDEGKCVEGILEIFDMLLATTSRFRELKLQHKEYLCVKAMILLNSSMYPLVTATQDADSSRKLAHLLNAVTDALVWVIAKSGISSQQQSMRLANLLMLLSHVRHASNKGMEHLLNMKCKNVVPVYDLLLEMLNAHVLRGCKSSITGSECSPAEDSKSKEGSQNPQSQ
In short: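 ER-beta-UAS-bla HEK293T (GripTite) cells in 2% charcoal-stripped FBS medium were preincubated 6 hr at 37C, dosed with compound, then stimulated with 1 nM E2 (final) for 16 hr; beta-lactamase reporter read by B/G FRET fluorescence after 2 hr substrate loading.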

[6] = qHTS assay to identify small molecule agonists of the progesterone receptor (PR) signaling pathway - cell viability counter screen (AID 1346799; calls by dose curve; note: nearly all actives have a fitted effect of over 45% in size; note: potency is the fitted concentration of half-maximal effect)
In short: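 Luminescence from CellTiter-Glo, added after the beta-lactamase FRET read in the same wells, gave cytotoxicity in PR-UAS-bla HEK293T cells treated with compounds for 16 hr at 37C.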

[7] = qHTS assay for small molecule disruptors of the mitochondrial membrane potential (AID 720635); settings: HepG2 mitochondrial membrane potential, Mito-MPS dye ratio; ratio activity, negative = MMP loss: at 83.2 µM (top of the series) unless noted; note: potency is the fitted concentration of half-maximal effect
In short: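 HepG2 cells (2,000/well) attached overnight at 37C, then took compound for 1 hr at 37C, 5% CO2. Mito-MPS dye was added for 30 min; fluorescence was read at 490/535 nm (monomers) and 540/590 nm (aggregates).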

[8] = biological target: Glucocorticoid receptor (Homo sapiens) (UniProt P04150); test: qHTS assay to identify small molecule antagonists of the glucocorticoid receptor (GR) signaling pathway (AID 720692; active = well fitted inhibition curve with a large enough effect in the signal ratio in the repeat runs, not every such curve was filed as active; inconclusive = weak or mixed curves, or effect the other way; inactive = no such curve, though single readings can be large or run the other way; the % refers to the signal ratio; note: % is set by controls: 0 for no effect and ±100 for the full control effect); settings: GR-bla HeLa, beta-lactamase FRET ratio, dexamethasone-stimulated, 18 h; activity change, negative = inhibition: at 58.5 µM (top of the series) unless noted
UniProt P04150, sequence (P04150 whole entry, looked up): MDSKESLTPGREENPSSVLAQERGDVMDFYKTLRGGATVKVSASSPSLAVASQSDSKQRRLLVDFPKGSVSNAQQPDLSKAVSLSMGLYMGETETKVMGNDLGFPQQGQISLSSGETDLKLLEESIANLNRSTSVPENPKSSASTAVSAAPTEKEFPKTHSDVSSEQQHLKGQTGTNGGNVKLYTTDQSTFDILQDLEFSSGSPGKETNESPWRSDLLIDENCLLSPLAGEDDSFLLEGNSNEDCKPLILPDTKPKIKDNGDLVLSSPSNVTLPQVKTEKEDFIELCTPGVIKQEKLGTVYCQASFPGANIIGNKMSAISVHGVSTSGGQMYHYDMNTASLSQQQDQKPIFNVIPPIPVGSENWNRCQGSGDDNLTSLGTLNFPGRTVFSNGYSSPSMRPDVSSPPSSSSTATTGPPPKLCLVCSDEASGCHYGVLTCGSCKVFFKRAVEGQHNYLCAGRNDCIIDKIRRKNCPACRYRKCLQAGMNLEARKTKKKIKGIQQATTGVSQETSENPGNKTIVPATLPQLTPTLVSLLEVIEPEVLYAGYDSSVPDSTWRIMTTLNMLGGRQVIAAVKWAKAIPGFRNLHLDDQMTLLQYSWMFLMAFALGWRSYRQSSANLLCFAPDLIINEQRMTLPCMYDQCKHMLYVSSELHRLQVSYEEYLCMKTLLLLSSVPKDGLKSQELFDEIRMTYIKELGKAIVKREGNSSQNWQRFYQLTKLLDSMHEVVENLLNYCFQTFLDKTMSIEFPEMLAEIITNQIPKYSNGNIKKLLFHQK
In short: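 Dexamethasone (5 nM final) stimulated a stably integrated GRE-beta-lactamase reporter in HeLa cells during 18 h co-incubation with compounds; signal was quantified as fluorescence intensity of B/G FRET substrate after 2 h.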

[9] = qHTS assay for identifying genotoxic compounds that show differential cytotoxicity against isogenic chicken DT40 cell lines with known DNA damage response pathways - Rev3 mutant cell line (AID 743014); settings: chicken DT40 Rev3-/- viability, CellTiter-Glo, 40 h; activity, negative = cytotoxicity: at 68.4 µM (top of the series) unless noted; note: nearly all actives have a fitted effect of over 55% in size; note: potency is the fitted concentration of half-maximal effect
[10] = qHTS assay to identify small molecule antagonists of the thyroid receptor (TR) signaling pathway - cell viability counter screen (AID 743064); settings: GH3.TRE-Luc viability, CellTiter-Fluor, 24 h; activity change, negative = cytotoxic: at 70.3 µM (top of the series) unless noted; note: nearly all actives have a fitted effect of over 50% in size; note: potency is the fitted concentration of half-maximal effect
In short: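 Fluorescence from CellTiter-Fluor, added after 23.5 h exposure at 37 °C, reported viability of GH3.TRE-Luc cells co-treated with compound and 1 nM T3. Measured in the same wells as the luciferase TR readout.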

[11] = qHTS assay for small molecule agonists of the antioxidant response element (ARE) signaling pathway (AID 743202; active = well fitted activation curve with a large enough effect in the signal ratio in the repeat runs, not every such curve was filed as active; inconclusive = weak or mixed curves, or effect the other way; inactive = no such curve, though single readings can be large or run the other way; the % refers to the signal ratio; note: potency is the fitted concentration of half-maximal effect); settings: HepG2 ARE-bla reporter, beta-lactamase FRET, 16 h; activation: at 73.3 µM (top of the series) unless noted
In short: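 Compounds delivered in DMSO to ARE-bla HepG2 cells (2,000 cells/well, pre-incubated 5 h) and left 16 h at 37 C. LiveBLAzer B/G FRET substrate then added for 2 h at RT before fluorescence reading.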

[12] = biological target: Luciferin 4-monooxygenase (Photinus pyralis) (UniProt P08659); test: qHTS assay to identify small molecule inhibitors of firefly luciferase (AID 1224835); note: % is set by controls: 0 for no effect and ±100 for the full control effect; nearly all actives have a fitted effect of over 25% in size
UniProt P08659, sequence (P08659 whole entry, looked up): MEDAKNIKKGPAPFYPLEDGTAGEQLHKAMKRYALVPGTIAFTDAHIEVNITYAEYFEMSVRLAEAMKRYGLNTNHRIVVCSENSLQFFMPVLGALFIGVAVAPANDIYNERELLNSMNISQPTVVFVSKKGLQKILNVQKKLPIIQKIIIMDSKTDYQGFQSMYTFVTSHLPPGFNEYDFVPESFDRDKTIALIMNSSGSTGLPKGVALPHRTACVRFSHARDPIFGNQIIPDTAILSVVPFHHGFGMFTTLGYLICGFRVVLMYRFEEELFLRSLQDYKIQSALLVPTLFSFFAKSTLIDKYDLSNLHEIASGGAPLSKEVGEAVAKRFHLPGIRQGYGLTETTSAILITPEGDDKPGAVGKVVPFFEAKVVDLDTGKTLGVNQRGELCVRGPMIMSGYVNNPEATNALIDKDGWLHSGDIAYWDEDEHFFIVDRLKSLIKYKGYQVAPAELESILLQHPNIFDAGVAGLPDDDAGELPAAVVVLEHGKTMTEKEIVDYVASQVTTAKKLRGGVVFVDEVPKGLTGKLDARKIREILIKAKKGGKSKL
In short: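 Quantitative HTS format; KM concentrations of both substrates. Purified P. pyralis FLuc activity quantified from luminescence images.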

[13] = qHTS RealTime-Glo MT Cell Viability Assay in HEK293 cells - 24 hour (AID 1224886); note: nearly all actives have a fitted effect of over 50% in size; note: potency is the fitted concentration of half-maximal effect
In short: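 Reads taken at 0, 8, 16, 24, 32 and 40 h from the same wells. HEK293 cells (600/well) carried RealTime-Glo reagents from seeding, with compound added after a 5 h settle at 37 C.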

[14] = biological target: Cytochrome P450 2C9 (Homo sapiens) (UniProt P11712); test: Cytochrome P450 Family 2 Subfamily C Member 9 (CYP2C9) small molecule antagonists: luciferase reporter qHTS assay (AID 1671198); note: nearly all actives have a fitted effect of over 50% in size; note: potency is the fitted concentration of half-maximal effect
UniProt P11712, sequence (P11712 whole entry, looked up): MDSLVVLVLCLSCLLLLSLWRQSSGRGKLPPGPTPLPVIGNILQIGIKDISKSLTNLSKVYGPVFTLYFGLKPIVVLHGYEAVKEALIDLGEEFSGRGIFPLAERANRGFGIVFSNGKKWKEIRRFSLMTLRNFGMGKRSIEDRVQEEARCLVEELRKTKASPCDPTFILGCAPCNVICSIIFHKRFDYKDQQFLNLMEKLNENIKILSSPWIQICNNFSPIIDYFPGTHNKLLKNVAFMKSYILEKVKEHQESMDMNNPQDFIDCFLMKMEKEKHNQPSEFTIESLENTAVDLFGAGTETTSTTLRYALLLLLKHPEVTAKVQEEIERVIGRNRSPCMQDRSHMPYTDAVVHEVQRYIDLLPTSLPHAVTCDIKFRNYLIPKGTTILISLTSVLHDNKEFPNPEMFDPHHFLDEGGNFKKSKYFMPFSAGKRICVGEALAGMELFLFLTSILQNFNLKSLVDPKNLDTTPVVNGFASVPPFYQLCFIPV
In short: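 CYP2C9 activity was measured with a P450-Glo proluciferin substrate. Enzyme–substrate mix was held with compound for 10 min at room temperature, then NADPH regeneration solution was added for 1 h at 37C. Luciferin product was read as luminescence.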

[15] = qHTS assay for identifying genotoxic compounds that show differential cytotoxicity against isogenic chicken DT40 cell lines with known DNA damage response pathways - wild type cell line (AID 743012); settings: DT40 wild type chicken cells viability, CellTiter-Glo, 40 h; activity change, negative = cytotoxicity: at 68.4 µM (top of the series) unless noted; note: nearly all actives have a fitted effect of over 60% in size; note: potency is the fitted concentration of half-maximal effect
In short: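 Using parental DT40 (300 cells/well), compounds delivered in DMSO incubate 40 h at 37 C/5% CO2. CellTiter-Glo reagent then stands 30 min at room temperature, and luminescence gives cell viability.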

[16] = biological target: Progesterone receptor (Homo sapiens) (UniProt P06401); test: qHTS assay to identify small molecule antagonists of the progesterone receptor (PR) signaling pathway (AID 1346795; active = well fitted inhibition curve with a large enough effect in the signal ratio in the repeat runs, not every such curve was filed as active; inconclusive = weak or mixed curves; the % refers to the signal ratio; note: potency is the fitted concentration of half-maximal effect); settings: PR-UAS-bla HEK293T, beta-lactamase FRET ratio, 16 h; activity change, negative = inhibition: at 92.4 µM (top of the series) unless noted
UniProt P06401, sequence (P06401 whole entry, looked up): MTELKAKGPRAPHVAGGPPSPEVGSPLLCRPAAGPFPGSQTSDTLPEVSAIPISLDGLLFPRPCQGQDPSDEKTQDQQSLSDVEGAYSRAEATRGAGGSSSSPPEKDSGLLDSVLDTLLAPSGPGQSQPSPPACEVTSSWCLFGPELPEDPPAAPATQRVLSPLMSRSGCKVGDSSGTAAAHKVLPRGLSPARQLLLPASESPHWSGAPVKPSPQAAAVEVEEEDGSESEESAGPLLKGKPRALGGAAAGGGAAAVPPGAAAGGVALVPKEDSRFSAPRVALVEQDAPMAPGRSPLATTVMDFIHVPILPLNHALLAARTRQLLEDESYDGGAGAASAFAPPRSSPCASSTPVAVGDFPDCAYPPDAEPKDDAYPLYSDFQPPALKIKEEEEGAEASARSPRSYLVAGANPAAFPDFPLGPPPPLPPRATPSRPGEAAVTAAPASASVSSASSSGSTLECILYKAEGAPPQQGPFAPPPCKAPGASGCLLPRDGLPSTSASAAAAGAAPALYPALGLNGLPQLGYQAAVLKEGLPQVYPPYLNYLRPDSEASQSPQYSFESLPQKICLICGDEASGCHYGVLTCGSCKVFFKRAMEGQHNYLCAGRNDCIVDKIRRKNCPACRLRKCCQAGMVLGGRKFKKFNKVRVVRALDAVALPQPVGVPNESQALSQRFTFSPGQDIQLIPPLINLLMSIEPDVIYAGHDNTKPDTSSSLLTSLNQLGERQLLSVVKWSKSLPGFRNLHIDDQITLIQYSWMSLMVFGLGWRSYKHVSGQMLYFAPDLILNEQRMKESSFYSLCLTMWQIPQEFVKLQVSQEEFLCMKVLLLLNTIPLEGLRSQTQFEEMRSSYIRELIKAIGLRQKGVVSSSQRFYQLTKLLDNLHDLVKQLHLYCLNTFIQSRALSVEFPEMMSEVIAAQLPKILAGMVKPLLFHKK
In short: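 Read-out is fluorescence from the LiveBLAzer B/G FRET substrate, cleaved by a UAS-controlled beta-lactamase in PR-UAS-bla HEK293T cells after 16 hr exposure to compound plus 1 nM promegestone (final), followed by 2 hr at room temperature.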

[17] = biological target: Cytochrome P450 2D6 (Homo sapiens) (UniProt P10635); test: Cytochrome P450 Family 2 Subfamily D Member 6 (CYP2D6) small molecule antagonists: luciferase reporter qHTS assay (AID 1671196); note: potency is the fitted concentration of half-maximal effect; nearly all actives have a fitted effect of over 50% in size
In short: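 Luminescence (RLU), read 20 min after detection reagent, indicated CYP2D6 conversion of proluciferin to luciferin during a 1 h NADPH-dependent reaction at room temperature.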

[18] = biological target: Cytochrome P450 1A2 (Homo sapiens) (UniProt P05177); test: Cytochrome P450 Family 1 Subfamily A Member 2 (CYP1A2) small molecule antagonists: luciferase reporter qHTS assay (AID 1671199)
UniProt P05177, sequence (P05177 whole entry, looked up): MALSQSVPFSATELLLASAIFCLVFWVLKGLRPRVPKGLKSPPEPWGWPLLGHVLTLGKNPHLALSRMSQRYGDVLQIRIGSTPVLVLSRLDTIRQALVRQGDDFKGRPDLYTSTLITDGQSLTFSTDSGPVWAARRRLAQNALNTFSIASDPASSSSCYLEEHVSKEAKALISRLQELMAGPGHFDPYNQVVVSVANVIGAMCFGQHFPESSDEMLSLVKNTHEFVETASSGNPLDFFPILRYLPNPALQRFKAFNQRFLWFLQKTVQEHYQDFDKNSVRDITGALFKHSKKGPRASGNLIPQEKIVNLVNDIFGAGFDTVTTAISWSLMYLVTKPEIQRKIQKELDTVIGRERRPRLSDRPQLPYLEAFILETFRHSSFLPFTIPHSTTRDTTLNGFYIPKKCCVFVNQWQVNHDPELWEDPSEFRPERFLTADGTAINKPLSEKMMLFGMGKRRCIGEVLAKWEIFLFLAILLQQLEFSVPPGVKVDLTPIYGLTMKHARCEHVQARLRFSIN
In short: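 CYP1A2 turnover of a luminogenic substrate was quantified after 1 h with NADPH regeneration at room temperature. Furafylline served as positive control.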

[19] = biological target: Peroxisome proliferator-activated receptor delta (Homo sapiens) (UniProt Q03181); test: qHTS assay to identify small molecule antagonists of the peroxisome proliferator-activated receptor delta (PPARd) signaling pathway (AID 743215; active = well fitted inhibition curve with a large enough effect in the signal ratio in the repeat runs, not every such curve was filed as active; inconclusive = weak or mixed curves, or effect the other way; inactive = no such curve, though single readings can be large or run the other way; the % refers to the signal ratio;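 note: cells stimulated with agonist L165041 at 300 nM final during compound exposure; % is set by controls: 0 for no effect and ±100 for the full control effect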); settings: HEK293H PPARd-UAS-bla, beta-lactamase FRET ratio, antagonist, 17 h; ratio activity, negative = inhibition: at 62 µM (top of the series) unless noted
In short: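 With L165041 present at 300 nM final, compounds were incubated 17 h at 37 C on PPARd UAS-bla HEK293H cells. A FRET-based beta-lactamase substrate was then applied for 2 h at room temperature and fluorescence intensity recorded.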

[20] = qHTS assay to identify small molecule antagonists of the progesterone receptor (PR) signaling pathway - cell viability counter screen (AID 1346798); note: nearly all actives have a fitted effect of over 50% in size; note: potency is the fitted concentration of half-maximal effect
In short: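 HEK293T PR-UAS-bla, 2% charcoal-stripped FBS; 4 hr pre-plate; cpd + R5020, 16 h 37C; LiveBLAzer read first; then CellTiter-Glo 30 min RT, luminescence.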
Tags give direction and shape of the fitted curve or compound fluorescence and quenching.

Clc1cc(Cl)cc(Cl)c1
inconclusive: ratio activity, negative = inhibition [2] -2.84%
inactive: Potency [1] | Potency [3] | Potency [4] | Potency [5] | Potency [6]

CCOC(=O)[C@H](CCc1ccccc1)N[C@@H](C)C(=O)N1[C@H](C(=O)O)C[C@@H]2CCC[C@@H]21
inconclusive: ratio activity, negative = MMP loss [7] 25.3% | activity change, negative = inhibition [8] -4.4% | Potency [9] 26.6 µM [rising, partial curve, poor fit]
inactive: Potency [1] | Potency [10] | Potency [11] | Potency [12] | Potency [13] | Potency [5]

CC/C=C\CCOC(=O)C(C)C
inactive: Potency [4]
inconclusive: activity change, negative = inhibition [8] 3.74% | activity, negative = cytotoxicity [9] 3.57% | activation [11] 16.2% | Potency [14] 56.4 µM [inhibitor, partial curve]

O=C(CN1CCN(Cc2ccc3c(c2)OCO3)CC1)N1c2ccccc2Sc2ccccc21
inconclusive: Potency [9] 29.8 µM [cytotoxic] | activation [11] 17.3%
inactive: Potency [7] | Potency [12]
active: Potency [10] 29.8 µM | Potency [14] 15.5 µM

CCN1CCC[C@H]1CNC(=O)c1cc(S(N)(=O)=O)ccc1OC
inactive: Potency [7] | Potency [15] | Potency [2] | Potency [4] | Potency [5] | Potency [16]
active: Potency [17] 15.5 µM
inconclusive: activity change, negative = inhibition [8] 6.32%

c1ccc([C@H]2CN3CCSC3=N2)cc1
inconclusive: Potency [7] 4.73 µM [activator, full curve, poor fit] | activity change, negative = inhibition [8] 14% | Potency [15] 33.5 µM [cytotoxic, single point] | Potency [9] 33.5 µM [cytotoxic, single point] | ratio activity, negative = inhibition [2] -27% | activity change, negative = inhibition [3] -21.5% | Potency [6] 0.0596 µM [cytotoxic, full curve, poor fit] | Potency [17] 17.4 µM [inhibitor, partial curve] | Potency [18] 19.5 µM [inhibitor, partial curve]
inactive: Potency [4]

C=CCOc1c(Br)cc(C(C)(C)c2cc(Br)c(OCC=C)c(Br)c2)cc1Br
inactive: Potency [4]
inconclusive: ratio activity, negative = inhibition [2] 26.1% | Potency [11] 33.5 µM [rising, single point] | ratio activity, negative = inhibition [19] -6.92% | activity change, negative = inhibition [3] -0.675% | Potency [20] 21.2 µM [rising, partial curve, poor fit] | Potency [6] 10.6 µM [rising, full curve]

O=C(CCBr)N1CCN(C(=O)CCBr)CC1
inconclusive: Potency [1] 26.6 µM [activator, partial curve, poor fit] | ratio activity, negative = MMP loss [7] -10.8% | Potency [16] 2.98 µM [rising, single point] | Potency [20] 2.98 µM [cytotoxic, single point] | Potency [18] 27.5 µM [inhibitor, partial curve]
inactive: Potency [9] | Potency [4] | Potency [13] | Potency [14]
active: Potency [11] 13.3 µM

Nc1cccc(S(=O)(=O)c2cccc(N)c2)c1
inactive: Potency [4] | Potency [20] | Potency [6]
active: Potency [15] 61.1 µM
inconclusive: Potency [7] 4.86 µM [activator, partial curve, poor fit] | Potency [9] 54.5 µM [cytotoxic, partial curve, poor fit] | ratio activity, negative = inhibition [2] -11.4% | Potency [11] 61.1 µM [rising, partial curve, poor fit] | activity, negative = inhibition [5] 23.8% | Potency [14] 56.4 µM [inhibitor, partial curve]

SCCSCCS
inconclusive: Potency [7] 2.43 µM [fluorescent, single point] | activity change, negative = inhibition [8] 19.6% | ratio activity, negative = inhibition [2] 5.59% | activity change, negative = inhibition [3] 32.2%
inactive: Potency [4]

O=C(O)CSCC(=O)NC1CCSC1=O (centres undefined)
inconclusive: Potency [3] 2.68 µM [inhibitor, single point] | Potency [6] 33.5 µM [rising, single point]
inactive: Potency [7] | Potency [4] | Potency [16] | Potency [14]

CC1(C)[C@H](C(=O)OCc2cccc(Oc3ccccc3)c2)[C@@H]1C=C(Cl)Cl
inactive: Potency [4] | Potency [6]

CCOc1cc([N+](=O)[O-])c(OCC)cc1N1CCOCC1
active: Potency [13] 15.5 µM | Potency [16] 27.3 µM
inactive: Potency [10] | Potency [20]
inconclusive: Potency [7] 6.86 µM [activator, full curve, poor fit] | activity change, negative = inhibition [8] 5.33% | Potency [9] 2.43 µM [cytotoxic, partial curve] | ratio activity, negative = inhibition [2] -1.39% | Potency [4] 27.3 µM [cytotoxic, partial curve] | activity, negative = inhibition [5] 0.409%

— PubChem BioAssay (Tox21)
